From the supplement of paper PMC12217912
This is one part of the list. The full chains were built here from the parent and the listed change. Inactive controls read about 0.05.

B1: TEV protease; numbered along this chain (parent)
chain: MGESLFKGPRDYNPISSSICHLTNESDGHTTSLYGIGFGPFIITNKHLFRRNNGTLVVQSLHGVFKVKDTTTLQQHLVDGRDMIIIRMPKDFPPFPQKLKFREPQREERICLVTTNFQTKSMSSMVSDTSCTFPSGDGIFWKHWIQTKDGQCGSPLVSTRDGFIVGIHSASNFTNTNNYFTSVPKNFMELLTNQEAQQWVSGWRLNADSVLWGGHKVFMVKPEEPFQPVKEATQL

Variants of: B1
Assay: raw area under fraction-flipped curve 0-4 h after induction (AUC4h, not background-subtracted), DNA-recorder readout of cleavage of the substrate (dimensionless); higher = more cleavage of the substrate by the protease variant
Conditions: temperature: 34 °C; time window: 0-4 h after rhamnose induction
Procedure: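 In vivo DNA recorder in E. coli TOP10(DE3) ΔrhaA at 34 °C. Each TEVp single-site mutant (parent TEVp 0) is paired with a single-site variant of the 7-mer TEVs (canonical ENLYFQ|S). The substrate sits between flexible linkers in a Bxb1-sfGFP-TEVs-SsrA fusion, so cleavage stabilises Bxb1 and speeds flipping of a recombination array, read by NGS. The value is the raw area under the fraction-flipped curve over 0-4 h after rhamnose induction (AUC4h), with ≥20 reads per time point. It is not background-subtracted; inactive controls average about 0.047.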
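Also: Bxb1 expression induced with 0.2% (w/v) L-rhamnose at OD600 near 0.5, cultures sampled hourly, flipped fraction per protease–substrate barcode pair counted by paired-end Illumina sequencing.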

Variant | area with substrate ENLYDQS | area with substrate ENLYEQS | area with substrate ENLYGQS | area with substrate ENLYIQS | area with substrate ENLYLQS | area with substrate ENLYNQS | area with substrate ENLYPQS | area with substrate ENLYRQS | area with substrate ENLYYQS | area with substrate ENLYKQS | area with substrate ENLYQQS | area with substrate ENLYSQS | area with substrate ENLYTQS | area with substrate ENLYVQS | area with substrate ENLYHQS | area with substrate ENLYMQS | area with substrate ENLYWQS | area with substrate ENLYCQS
T72L | 0.0649 | 0.0475 | 0.0573 | 0.136 | 0.0769 | 0.0404 | 0.0587 | 0.0787 | 0.0542 | – | – | – | – | – | – | – | – | –
H76Y | 0.0932 | 0.0556 | 0.0665 | 0.0937 | – | 0.0704 | 0.0731 | 0.0601 | 0.0661 | 0.0453 | 0.061 | 0.0779 | 0.0772 | 0.0927 | – | – | – | –
R51V | 0.0563 | 0.0618 | 0.098 | 0.0808 | 0.0687 | 0.0502 | 0.0544 | – | – | 0.0601 | 0.0497 | 0.0732 | – | 0.109 | 0.0797 | 0.0896 | 0.0985 | –
N206Q | 0.0644 | 0.0643 | – | 0.108 | – | 0.069 | 0.0539 | – | – | – | 0.0702 | 0.0799 | – | 0.108 | 0.0633 | – | 0.083 | 0.0781
I86H | 0.0616 | – | – | 0.0527 | – | 0.035 | – | 0.0307 | 0.0238 | 0.0346 | – | 0.0296 | – | – | – | – | 0.0446 | –
Q234E | 0.0537 | 0.074 | 0.0803 | 0.127 | – | 0.0618 | 0.0628 | 0.073 | – | – | 0.0702 | 0.0722 | – | – | 0.0596 | 0.086 | 0.0775 | 0.0649
S121N | – | 0.0569 | 0.0716 | 0.106 | – | 0.0573 | 0.0775 | 0.0538 | 0.0628 | – | 0.0577 | – | 0.103 | 0.132 | 0.0617 | 0.0904 | 0.0914 | 0.0732
P89I | 0.0699 | 0.0495 | 0.0405 | – | – | 0.058 | 0.0679 | 0.0552 | 0.0394 | – | – | 0.0705 | – | 0.0816 | 0.0423 | 0.0448 | – | –
G37D | 0.0563 | 0.0475 | 0.0418 | 0.0451 | – | 0.0332 | 0.0381 | 0.0392 | – | 0.0472 | 0.023 | 0.043 | 0.0421 | 0.0384 | 0.052 | 0.0432 | 0.0276 | –
P134F | 0.061 | 0.0526 | 0.0592 | – | – | 0.0589 | – | 0.0564 | 0.0543 | – | – | 0.0711 | – | 0.0736 | 0.0636 | 0.0618 | 0.0543 | 0.0386
G150S | 0.0571 | 0.0575 | 0.0579 | – | 0.0729 | 0.0655 | 0.0606 | 0.0693 | – | 0.0466 | – | 0.062 | 0.052 | – | – | 0.063 | 0.0453 | 0.0621
I19D | 0.0503 | 0.0512 | 0.0435 | 0.0497 | – | 0.0422 | 0.0526 | 0.0491 | 0.0491 | 0.0247 | 0.0573 | 0.0455 | 0.0399 | 0.0474 | 0.0556 | 0.0412 | 0.045 | –
V229W | – | 0.0678 | 0.0769 | – | 0.0701 | 0.0637 | 0.0612 | 0.0664 | 0.0631 | – | 0.0601 | – | 0.0796 | 0.139 | 0.0669 | – | 0.0762 | 0.08
F226L | – | 0.0883 | 0.0455 | – | 0.111 | 0.0648 | 0.0604 | 0.0518 | 0.0653 | 0.0466 | – | – | – | – | – | 0.105 | – | 0.0825
V126D | – | 0.0609 | 0.0902 | 0.123 | – | 0.0723 | – | 0.0671 | 0.0676 | 0.0442 | 0.0658 | – | – | 0.122 | 0.0529 | – | 0.0781 | 0.0652
S201F | 0.047 | 0.0837 | – | – | – | – | – | 0.0736 | – | – | – | 0.077 | – | – | 0.0656 | – | – | 0.0819

Variant | area with substrate ENLYDQS | area with substrate ENLYEQS | area with substrate ENLYGQS | area with substrate ENLYIQS | area with substrate ENLYLQS | area with substrate ENLYNQS | area with substrate ENLYPQS | area with substrate ENLYRQS | area with substrate ENLYYQS | area with substrate ENLYKQS | area with substrate ENLYQQS | area with substrate ENLYSQS | area with substrate ENLYTQS | area with substrate ENLYVQS | area with substrate ENLYHQS | area with substrate ENLYMQS | area with substrate ENLYWQS | area with substrate ENLYCQS
N53H | 0.0599 | 0.0681 | – | 0.115 | 0.0886 | 0.0682 | 0.076 | 0.0633 | – | 0.0596 | – | 0.0709 | 0.0854 | 0.099 | 0.0811 | – | 0.0673 | –
G54P | 0.0495 | – | 0.0574 | – | – | 0.0671 | 0.0595 | – | – | 0.0532 | – | – | – | – | – | 0.0285 | 0.0556 | –
S158Q | – | 0.0258 | – | 0.0719 | – | 0.0567 | – | 0.0448 | – | 0.0548 | 0.0461 | 0.0492 | – | – | – | – | – | 0.0582
S158K | – | 0.0527 | 0.0571 | – | – | – | – | 0.044 | – | 0.0634 | 0.0546 | – | 0.0495 | – | 0.0533 | 0.0252 | – | 0.0527
S182D | – | – | – | 0.0613 | – | – | – | 0.0488 | – | 0.0175 | 0.0868 | – | – | 0.0626 | 0.0618 | 0.0767 | – | 0.0682
H215T | – | 0.0517 | – | 0.0559 | – | – | 0.0672 | – | – | – | 0.0657 | – | – | – | 0.0568 | – | – | 0.0768
E108K | 0.0451 | 0.06 | – | – | – | – | 0.0406 | – | 0.0439 | 0.0379 | – | – | – | 0.0722 | 0.0571 | 0.0702 | – | 0.0578
H62E | 0.0684 | 0.0696 | 0.0584 | – | 0.0558 | – | – | 0.0673 | 0.0537 | 0.0505 | – | – | 0.0974 | 0.132 | 0.0652 | 0.0776 | 0.0761 | –
G153H | 0.0485 | 0.0604 | 0.0492 | 0.0286 | 0.0467 | 0.048 | 0.0458 | – | – | 0.0127 | 0.0396 | 0.0246 | 0.0463 | 0.0526 | 0.0319 | – | 0.0525 | 0.036
H143V | 0.0756 | 0.0634 | 0.0587 | 0.0913 | 0.0705 | 0.0619 | – | 0.056 | 0.0674 | 0.0731 | 0.0623 | 0.065 | 0.0637 | 0.0849 | 0.0575 | – | 0.0511 | 0.0761
D137W | 0.0569 | 0.0681 | – | – | – | 0.0576 | – | – | – | 0.0235 | – | – | 0.1 | – | – | – | 0.073 | 0.0797
I84L | 0.0776 | 0.0632 | – | 0.0931 | 0.094 | 0.0743 | 0.041 | 0.0659 | 0.0758 | – | 0.0681 | – | – | 0.0899 | – | 0.0834 | 0.0854 | –
F173P | 0.0815 | 0.0525 | 0.0709 | – | – | – | – | 0.0832 | – | 0.0724 | 0.0355 | 0.0698 | – | – | – | – | 0.0653 | 0.098
F6E | 0.0985 | 0.0587 | 0.0659 | – | – | 0.0721 | – | – | – | – | 0.05 | – | – | 0.108 | 0.0296 | – | 0.072 | –
I15R | 0.0491 | – | – | 0.0505 | – | – | – | – | – | – | – | 0.057 | – | – | 0.0534 | 0.0471 | 0.0476 | –
